Laboratory results taken from patent US6544989B2, “Benzazoles: benzoxazole, benzthiazole and benzimidazole derivatives” (Syngenta Limited, priority 1998, dated 2003).

Experiments:
Settings in all cases: 500 ppm by weight; mortality assessed usually between three and five days after treatment
Myzus persicae = test: Pesticidal test, Myzus persicae mortality
Method: (§1) The test procedure adopted with regard to each pest, except nematodes, was essentially the same and composed supporting a number of the pests on a medium which was usually a substrate, a host plant or a foodstuff on which the pests feed, and treating either or both the medium and the pests with a composition. Pest mortality was assessed usually between three and five days after treatment Knockdown of housefly (Musca domestica) was assessed 15 minutes after treatment

Spodoptera exigua = test: Pesticidal test, Spodoptera exigua mortality
Method: as §1

Heliothis virescens = test system: Heliothis virescens
Method: as §1

Musca domestica = test system: Musca domestica
Method: as §1

Tetranychus urticae = test system: Tetranychus urticae
Method: as §1

Row | SMILES | MYZUPE = Myzus persicae, grading of mortality (score) (Myzus persicae) | LAPHEG = Spodoptera exigua, grading of mortality (score) (Spodoptera exigua) | HELIVI = Heliothis virescens, grading of mortality (score) (Heliothis virescens) | MUSCDO AK = Musca domestica (kill), grading of mortality (score) (Musca domestica) | TETRUR = Tetranychus urticae, grading of mortality (score) (Tetranychus urticae)
1 | Cc1nsc(NC(=O)Cc2ccc3ocnc3c2)c1Cl [1(A3)] | 5 (5 indicates 40-79% mortality) | 0 (0 indicates less than 40% mortality) | 0 (0 indicates less than 40% mortality) | 0 (0 indicates less than 40% mortality) | 0 (0 indicates less than 40% mortality)
2 | Cc1nc2cc(CC(=O)Nc3snc(C)c3Cl)ccc2o1 [2(A3)] | 9 (9 indicates 80-100% mortality) | 0 (0 indicates less than 40% mortality) | 5 (5 indicates 40-79% mortality) | 0 (0 indicates less than 40% mortality) | 0 (0 indicates less than 40% mortality)
3 | Cc1nc2cc(CC(=O)Nc3snc(C)c3Cl)ccc2s1 [2(A13)] | 0 (0 indicates less than 40% mortality) | 0 (0 indicates less than 40% mortality) | 0 (0 indicates less than 40% mortality) | 0 (0 indicates less than 40% mortality) | 0 (0 indicates less than 40% mortality)
4 | Cc1nc2ccc(CC(=O)Nc3snc(C)c3Cl)cc2o1 [2(A23)] | 0 (0 indicates less than 40% mortality) | 0 (0 indicates less than 40% mortality) | 0 (0 indicates less than 40% mortality) | 0 (0 indicates less than 40% mortality) | 0 (0 indicates less than 40% mortality)
5 | Cc1nc2ccc(CC(=O)Nc3snc(C)c3Cl)cc2[nH]1 [2(A43)] | 0 (0 indicates less than 40% mortality) | 0 (0 indicates less than 40% mortality) | 0 (0 indicates less than 40% mortality) | 0 (0 indicates less than 40% mortality) | 0 (0 indicates less than 40% mortality)
6 | Cc1nc2cc(CC(=O)N(C)c3snc(C)c3Cl)ccc2o1 [2(B3)] | 0 (0 indicates less than 40% mortality) | 0 (0 indicates less than 40% mortality) | 0 (0 indicates less than 40% mortality) | 0 (0 indicates less than 40% mortality) | 0 (0 indicates less than 40% mortality)
7 | CCN(C(=O)Cc1ccc2oc(C)nc2c1)c1snc(C)c1Cl [2(C3)] | 5 (5 indicates 40-79% mortality) | 5 (5 indicates 40-79% mortality) | 0 (0 indicates less than 40% mortality) | 0 (0 indicates less than 40% mortality) | 9 (9 indicates 80-100% mortality)
8 | CCCN(C(=O)Cc1ccc2oc(C)nc2c1)c1snc(C)c1Cl [2(D3)] | 0 (0 indicates less than 40% mortality) | 0 (0 indicates less than 40% mortality) | 0 (0 indicates less than 40% mortality) | 0 (0 indicates less than 40% mortality) | 0 (0 indicates less than 40% mortality)
9 | C=CCN(C(=O)Cc1ccc2oc(C)nc2c1)c1snc(C)c1Cl [2(E3)] | 0 (0 indicates less than 40% mortality) | 0 (0 indicates less than 40% mortality) | 0 (0 indicates less than 40% mortality) | 0 (0 indicates less than 40% mortality) | 0 (0 indicates less than 40% mortality)
10 | C#CCN(C(=O)Cc1ccc2oc(C)nc2c1)c1snc(C)c1Cl [2(F3)] | 9 (9 indicates 80-100% mortality) | 0 (0 indicates less than 40% mortality) | 0 (0 indicates less than 40% mortality) | 0 (0 indicates less than 40% mortality) | 0 (0 indicates less than 40% mortality)
11 | COCN(C(=O)Cc1ccc2oc(C)nc2c1)c1snc(C)c1Cl [2(K3)] | 9 (9 indicates 80-100% mortality) | 0 (0 indicates less than 40% mortality) | 0 (0 indicates less than 40% mortality) | 0 (0 indicates less than 40% mortality) | 9 (9 indicates 80-100% mortality)
12 | CCOCN(C(=O)Cc1ccc2oc(C)nc2c1)c1snc(C)c1Cl [2(L3)] | 9 (9 indicates 80-100% mortality) | 5 (5 indicates 40-79% mortality) | 9 (9 indicates 80-100% mortality) | 0 (0 indicates less than 40% mortality) | 9 (9 indicates 80-100% mortality)
13 | COCCOCN(C(=O)Cc1ccc2oc(C)nc2c1)c1snc(C)c1Cl [2(M3)] | 5 (5 indicates 40-79% mortality) | 0 (0 indicates less than 40% mortality) | 0 (0 indicates less than 40% mortality) | 0 (0 indicates less than 40% mortality) | 0 (0 indicates less than 40% mortality)
14 | CCc1nc2cc(CC(=O)Nc3snc(C)c3Cl)ccc2o1 [3(A3)] | 9 (9 indicates 80-100% mortality) | 5 (5 indicates 40-79% mortality) | 9 (9 indicates 80-100% mortality) | 9 (9 indicates 80-100% mortality) | 5 (5 indicates 40-79% mortality)
15 | CCCc1nc2cc(CC(=O)Nc3snc(C)c3Cl)ccc2o1 [4(A3)] | 9 (9 indicates 80-100% mortality) | 5 (5 indicates 40-79% mortality) | 9 (9 indicates 80-100% mortality) | 9 (9 indicates 80-100% mortality) | 5 (5 indicates 40-79% mortality)
16 | CCCc1nc2ccc(CC(=O)Nc3snc(C)c3Cl)cc2o1 [4(A23)] | 9 (9 indicates 80-100% mortality) | 0 (0 indicates less than 40% mortality) | 0 (0 indicates less than 40% mortality) | 0 (0 indicates less than 40% mortality) | 0 (0 indicates less than 40% mortality)
17 | Cc1nsc(NC(=O)Cc2ccc3nc(C(C)(C)C)[nH]c3c2)c1Cl [9(A43)] | 9 (9 indicates 80-100% mortality) |  | 0 (0 indicates less than 40% mortality) | 0 (0 indicates less than 40% mortality) | 5 (5 indicates 40-79% mortality)
18 | Cc1nsc(N(C(=O)Cc2ccc3oc(CC(C)(C)C)nc3c2)C(C)C)c1Cl [15(N3)] | 0 (0 indicates less than 40% mortality) |  | 0 (0 indicates less than 40% mortality) | 0 (0 indicates less than 40% mortality) | 0 (0 indicates less than 40% mortality)
19 | Cc1nsc(NC(=O)Cc2ccc3oc(C4CCCCC4)nc3c2)c1Cl [35(A3)] | 9 (9 indicates 80-100% mortality) |  | 5 (5 indicates 40-79% mortality) | 0 (0 indicates less than 40% mortality) | 9 (9 indicates 80-100% mortality)
20 | Cc1nsc(NC(=O)Cc2ccc3oc(C(F)(F)C(F)(F)C(F)(F)F)nc3c2)c1Cl [80(A3)] | 0 (0 indicates less than 40% mortality) |  | 0 (0 indicates less than 40% mortality) | 0 (0 indicates less than 40% mortality) | 0 (0 indicates less than 40% mortality)
21 | Cc1nsc(NC(=O)Cc2ccc3oc(CC#N)nc3c2)c1Cl [113(A3)] | 0 (0 indicates less than 40% mortality) |  | 0 (0 indicates less than 40% mortality) | 0 (0 indicates less than 40% mortality) | 9 (9 indicates 80-100% mortality)
22 | Cc1nsc(NC(=O)Cc2ccc3oc(-c4ccncc4)nc3c2)c1Cl [339(A3)] | 0 (0 indicates less than 40% mortality) |  | 0 (0 indicates less than 40% mortality) | 0 (0 indicates less than 40% mortality) | 9 (9 indicates 80-100% mortality)
